Laboratory results: article PMC5919408
Results are given in words; binding and its absence hold for the method and conditions named. In cells and extracts the contact can be indirect. Some entries that bind do so weakly or less than the wild type. For part of these data: Sequences can lack the tags named with a protein.

Amino acid sequences for entries named in this document (tags omitted).
UniProt P35169: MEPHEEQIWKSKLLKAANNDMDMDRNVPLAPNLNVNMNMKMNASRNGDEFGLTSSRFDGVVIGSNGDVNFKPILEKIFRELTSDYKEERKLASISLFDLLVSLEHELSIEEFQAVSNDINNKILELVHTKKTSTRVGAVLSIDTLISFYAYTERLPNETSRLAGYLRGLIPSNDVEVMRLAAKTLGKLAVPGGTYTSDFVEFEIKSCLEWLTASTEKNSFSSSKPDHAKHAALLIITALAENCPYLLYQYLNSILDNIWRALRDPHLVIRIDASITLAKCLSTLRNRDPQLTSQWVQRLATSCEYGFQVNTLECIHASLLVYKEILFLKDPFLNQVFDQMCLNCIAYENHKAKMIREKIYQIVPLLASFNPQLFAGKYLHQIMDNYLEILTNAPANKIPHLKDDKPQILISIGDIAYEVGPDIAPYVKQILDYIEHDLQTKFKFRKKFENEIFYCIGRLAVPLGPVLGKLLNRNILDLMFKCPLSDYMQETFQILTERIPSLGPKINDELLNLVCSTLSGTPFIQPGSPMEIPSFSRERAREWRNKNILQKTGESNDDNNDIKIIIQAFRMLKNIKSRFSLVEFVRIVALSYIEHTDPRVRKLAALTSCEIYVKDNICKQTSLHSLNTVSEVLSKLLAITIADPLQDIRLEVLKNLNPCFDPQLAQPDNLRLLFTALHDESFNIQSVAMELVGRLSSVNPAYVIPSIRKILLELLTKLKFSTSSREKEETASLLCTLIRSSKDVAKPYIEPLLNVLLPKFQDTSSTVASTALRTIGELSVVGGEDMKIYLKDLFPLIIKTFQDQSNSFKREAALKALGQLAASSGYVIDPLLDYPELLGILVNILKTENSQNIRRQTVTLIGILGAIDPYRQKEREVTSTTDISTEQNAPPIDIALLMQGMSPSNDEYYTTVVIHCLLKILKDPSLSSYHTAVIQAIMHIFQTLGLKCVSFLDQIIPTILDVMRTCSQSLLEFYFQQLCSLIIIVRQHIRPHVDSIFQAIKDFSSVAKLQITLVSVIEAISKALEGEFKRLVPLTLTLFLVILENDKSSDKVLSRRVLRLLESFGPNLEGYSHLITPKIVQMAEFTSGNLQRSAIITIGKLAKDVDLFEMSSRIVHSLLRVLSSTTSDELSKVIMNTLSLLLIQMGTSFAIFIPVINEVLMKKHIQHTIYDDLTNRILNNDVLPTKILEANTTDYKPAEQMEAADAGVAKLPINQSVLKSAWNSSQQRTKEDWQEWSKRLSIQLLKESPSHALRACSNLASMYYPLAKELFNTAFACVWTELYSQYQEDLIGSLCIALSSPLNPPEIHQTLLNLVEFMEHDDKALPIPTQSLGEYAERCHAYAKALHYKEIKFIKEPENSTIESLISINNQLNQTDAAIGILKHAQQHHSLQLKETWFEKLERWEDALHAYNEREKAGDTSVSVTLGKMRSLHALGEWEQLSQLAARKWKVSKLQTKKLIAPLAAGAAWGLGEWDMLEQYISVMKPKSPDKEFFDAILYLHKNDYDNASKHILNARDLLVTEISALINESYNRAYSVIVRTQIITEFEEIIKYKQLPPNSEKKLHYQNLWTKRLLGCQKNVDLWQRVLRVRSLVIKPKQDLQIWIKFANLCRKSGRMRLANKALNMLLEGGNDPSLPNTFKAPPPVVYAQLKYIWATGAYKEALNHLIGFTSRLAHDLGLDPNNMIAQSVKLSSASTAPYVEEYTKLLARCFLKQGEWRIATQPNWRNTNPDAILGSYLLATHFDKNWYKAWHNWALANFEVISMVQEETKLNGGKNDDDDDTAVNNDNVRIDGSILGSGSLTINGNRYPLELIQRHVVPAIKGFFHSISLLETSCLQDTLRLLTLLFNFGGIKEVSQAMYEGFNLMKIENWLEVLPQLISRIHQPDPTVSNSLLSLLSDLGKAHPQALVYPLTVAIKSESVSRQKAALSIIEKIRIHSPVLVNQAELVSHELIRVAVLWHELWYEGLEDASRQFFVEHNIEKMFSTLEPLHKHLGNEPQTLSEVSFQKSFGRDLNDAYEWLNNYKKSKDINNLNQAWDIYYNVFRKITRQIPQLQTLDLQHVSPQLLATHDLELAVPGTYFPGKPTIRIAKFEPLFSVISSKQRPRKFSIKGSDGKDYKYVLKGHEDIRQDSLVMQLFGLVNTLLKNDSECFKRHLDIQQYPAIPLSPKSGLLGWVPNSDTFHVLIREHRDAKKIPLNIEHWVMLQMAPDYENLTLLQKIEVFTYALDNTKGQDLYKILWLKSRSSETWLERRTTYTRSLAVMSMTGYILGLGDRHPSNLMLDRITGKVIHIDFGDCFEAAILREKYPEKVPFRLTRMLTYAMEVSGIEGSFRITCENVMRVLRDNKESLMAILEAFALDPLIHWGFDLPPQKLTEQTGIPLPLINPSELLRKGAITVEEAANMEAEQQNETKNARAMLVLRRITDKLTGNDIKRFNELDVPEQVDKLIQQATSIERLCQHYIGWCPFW

Columns and labels:
[1] = molecular target: T1, GFP-Pib2^1-620 (S. cerevisiae) (UniProt P53191); experiment: co-IP; truncation mutants of GFP-Pib2 in Δpib2 cells precipitated with GFP-Trap; 60 mM glutamine in all buffers; western blot
T1 sequence: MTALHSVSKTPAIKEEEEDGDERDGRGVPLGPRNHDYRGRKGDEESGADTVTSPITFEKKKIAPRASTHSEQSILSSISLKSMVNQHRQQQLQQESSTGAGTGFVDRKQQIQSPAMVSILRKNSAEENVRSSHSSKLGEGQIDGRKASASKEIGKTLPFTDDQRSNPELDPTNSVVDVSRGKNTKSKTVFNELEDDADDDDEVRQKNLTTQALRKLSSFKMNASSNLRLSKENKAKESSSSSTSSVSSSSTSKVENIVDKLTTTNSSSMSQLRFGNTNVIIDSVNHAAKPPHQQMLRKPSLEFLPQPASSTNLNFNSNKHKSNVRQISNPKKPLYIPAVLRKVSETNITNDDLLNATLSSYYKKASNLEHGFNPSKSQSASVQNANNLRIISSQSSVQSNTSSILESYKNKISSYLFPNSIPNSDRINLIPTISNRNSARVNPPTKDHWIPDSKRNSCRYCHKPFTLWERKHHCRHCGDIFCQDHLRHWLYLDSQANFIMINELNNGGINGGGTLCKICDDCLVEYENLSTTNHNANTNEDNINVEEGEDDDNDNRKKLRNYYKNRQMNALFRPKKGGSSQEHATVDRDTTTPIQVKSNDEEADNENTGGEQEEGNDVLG

[2] = molecular target: T2, GFP-Pib2^165-635 (S. cerevisiae) (UniProt P53191); experiment: as above
T2 sequence: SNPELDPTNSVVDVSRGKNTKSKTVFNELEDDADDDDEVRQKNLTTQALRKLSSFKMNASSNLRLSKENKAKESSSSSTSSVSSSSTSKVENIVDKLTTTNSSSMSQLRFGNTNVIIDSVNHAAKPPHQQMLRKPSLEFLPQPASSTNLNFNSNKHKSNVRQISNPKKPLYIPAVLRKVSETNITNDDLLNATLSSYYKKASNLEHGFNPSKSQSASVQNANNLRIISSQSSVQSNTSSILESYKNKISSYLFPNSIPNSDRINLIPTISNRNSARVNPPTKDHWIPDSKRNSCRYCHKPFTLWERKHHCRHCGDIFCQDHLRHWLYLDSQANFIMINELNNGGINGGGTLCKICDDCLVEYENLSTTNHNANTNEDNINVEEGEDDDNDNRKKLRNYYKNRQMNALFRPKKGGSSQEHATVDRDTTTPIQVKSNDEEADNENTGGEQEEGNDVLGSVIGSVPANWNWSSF

[3] = molecular target: T3, GFP-Pib2^304-635 (S. cerevisiae) (UniProt P53191); experiment: as above
T3 sequence: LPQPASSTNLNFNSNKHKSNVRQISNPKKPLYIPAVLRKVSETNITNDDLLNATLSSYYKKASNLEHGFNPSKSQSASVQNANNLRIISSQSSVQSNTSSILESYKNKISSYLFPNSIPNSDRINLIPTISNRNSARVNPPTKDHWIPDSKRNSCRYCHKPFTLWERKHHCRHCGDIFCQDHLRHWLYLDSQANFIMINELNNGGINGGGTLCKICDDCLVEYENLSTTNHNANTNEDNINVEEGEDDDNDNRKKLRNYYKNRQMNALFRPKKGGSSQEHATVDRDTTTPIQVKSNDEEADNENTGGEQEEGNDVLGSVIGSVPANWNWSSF

Gtr1-TAP (S. cerevisiae) [4] = molecular target: T4, Gtr1-TAP (S. cerevisiae) (UniProt Q00582); experiment: co-IP; Gtr1-TAP precipitated with rabbit IgG-coupled Dynabeads from yeast cell extracts; TAP-A buffer with 0.2% Triton X-100, 4°C; western blot
T4 sequence: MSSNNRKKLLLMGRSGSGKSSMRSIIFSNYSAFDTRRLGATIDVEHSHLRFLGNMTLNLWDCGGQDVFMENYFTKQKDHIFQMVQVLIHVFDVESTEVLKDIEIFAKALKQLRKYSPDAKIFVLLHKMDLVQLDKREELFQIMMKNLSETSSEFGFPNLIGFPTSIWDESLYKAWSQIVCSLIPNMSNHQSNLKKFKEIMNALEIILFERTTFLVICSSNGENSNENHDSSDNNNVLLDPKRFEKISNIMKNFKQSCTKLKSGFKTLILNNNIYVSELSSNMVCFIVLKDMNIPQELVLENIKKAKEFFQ

GFP-Pib2 (S. cerevisiae) [5] = molecular target: T5, GFP-Pib2 (S. cerevisiae) (UniProt P53191); experiment: co-IP; GFP-Pib2 precipitated with GFP-Trap from extracts of cells with an additional copy of GTR1-TAP (pRS316-GTR1-TAP); Rag buffer (40 mM Na-HEPES pH 7.4, 5 mM MgCl2, 150 mM NaCl) instead of TAP-A buffer; western blot
T5 sequence: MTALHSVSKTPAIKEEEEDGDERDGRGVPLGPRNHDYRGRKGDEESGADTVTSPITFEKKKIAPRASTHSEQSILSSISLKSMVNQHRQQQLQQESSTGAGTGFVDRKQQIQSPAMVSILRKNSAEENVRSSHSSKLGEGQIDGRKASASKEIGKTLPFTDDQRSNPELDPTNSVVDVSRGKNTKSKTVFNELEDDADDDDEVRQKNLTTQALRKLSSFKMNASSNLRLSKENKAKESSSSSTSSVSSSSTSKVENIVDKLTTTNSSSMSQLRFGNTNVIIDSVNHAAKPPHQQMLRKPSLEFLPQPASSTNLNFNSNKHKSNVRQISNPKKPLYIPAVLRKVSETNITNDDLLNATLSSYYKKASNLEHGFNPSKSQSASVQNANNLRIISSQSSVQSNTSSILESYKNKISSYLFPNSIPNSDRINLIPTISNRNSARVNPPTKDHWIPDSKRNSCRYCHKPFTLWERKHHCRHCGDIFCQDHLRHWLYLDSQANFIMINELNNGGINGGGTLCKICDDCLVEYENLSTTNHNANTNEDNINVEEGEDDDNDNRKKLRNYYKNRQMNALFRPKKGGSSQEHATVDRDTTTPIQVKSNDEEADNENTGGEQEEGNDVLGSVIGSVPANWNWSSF

Gtr1-TAP (S. cerevisiae) [6] = molecular target: T4, Gtr1-TAP (S. cerevisiae); experiment: co-IP; Gtr1-TAP precipitated with IgG-Dynabeads from extracts of cells with an additional copy of GTR1-TAP (pRS316-GTR1-TAP); Rag buffer (40 mM Na-HEPES pH 7.4, 5 mM MgCl2, 150 mM NaCl) instead of TAP-A buffer; western blot
GFP-Pib2 (S. cerevisiae) [7] = molecular target: T5, GFP-Pib2 (S. cerevisiae); experiment: co-IP; GFP-Pib2 precipitated with magnetic GFP-Trap-M beads from yeast cell extracts; TAP-A buffer (50 mM Tris-HCl pH 8.0, 150 mM NaCl, 10% glycerol, 1 mM DTT, 1 mM EDTA) with 0.2% Triton X-100, 4°C; western blot; in Fig 5 and S5 Fig L-glutamine, D-glutamine or L-leucine added to all buffers
GFP-Tor1 (S. cerevisiae) = GFP-Tor1 (S. cerevisiae) (UniProt P35169); experiment: co-IP; GFP-Tor1 precipitated with GFP-Trap from extracts of cells expressing GFP-Tor1 and TAP-Pib2; cells grown in YPD, shifted to nitrogen-free YMM, glutamine added at various concentrations; western blot

Molecule | binding [1] | binding [2] | binding [3] | binding (Gtr1-TAP (S. cerevisiae) [4]) | binding (GFP-Pib2 (S. cerevisiae) [5]) | binding (Gtr1-TAP (S. cerevisiae) [6]) | binding (GFP-Pib2 (S. cerevisiae) [7]) | binding (GFP-Tor1 (S. cerevisiae))
Tor1 (endogenous) (from UniProt P35169 1-2470) | binds | binds | binds | binds | binds | binds | binds | 
TAP-Pib2 (protein, UniProt P53191 1-635) MTALHSVSKTPAIKEEEEDGDERDGRGVPLGPRNHDYRGRKGDEESGADTVTSPITFEKKKIAPRASTHSEQSILSSISLKSMVNQHRQQQLQQESSTGAGTGFVDRKQQIQSPAMVSILRKNSAEENVRSSHSSKLGEGQIDGRKASASKEIGKTLPFTDDQRSNPELDPTNSVVDVSRGKNTKSKTVFNELEDDADDDDEVRQKNLTTQALRKLSSFKMNASSNLRLSKENKAKESSSSSTSSVSSSSTSKVENIVDKLTTTNSSSMSQLRFGNTNVIIDSVNHAAKPPHQQMLRKPSLEFLPQPASSTNLNFNSNKHKSNVRQISNPKKPLYIPAVLRKVSETNITNDDLLNATLSSYYKKASNLEHGFNPSKSQSASVQNANNLRIISSQSSVQSNTSSILESYKNKISSYLFPNSIPNSDRINLIPTISNRNSARVNPPTKDHWIPDSKRNSCRYCHKPFTLWERKHHCRHCGDIFCQDHLRHWLYLDSQANFIMINELNNGGINGGGTLCKICDDCLVEYENLSTTNHNANTNEDNINVEEGEDDDNDNRKKLRNYYKNRQMNALFRPKKGGSSQEHATVDRDTTTPIQVKSNDEEADNENTGGEQEEGNDVLGSVIGSVPANWNWSSF |  |  |  |  |  |  |  | binds
Gtr1-TAP (protein, UniProt Q00582 1-310) MSSNNRKKLLLMGRSGSGKSSMRSIIFSNYSAFDTRRLGATIDVEHSHLRFLGNMTLNLWDCGGQDVFMENYFTKQKDHIFQMVQVLIHVFDVESTEVLKDIEIFAKALKQLRKYSPDAKIFVLLHKMDLVQLDKREELFQIMMKNLSETSSEFGFPNLIGFPTSIWDESLYKAWSQIVCSLIPNMSNHQSNLKKFKEIMNALEIILFERTTFLVICSSNGENSNENHDSSDNNNVLLDPKRFEKISNIMKNFKQSCTKLKSGFKTLILNNNIYVSELSSNMVCFIVLKDMNIPQELVLENIKKAKEFFQ |  |  |  |  | no binding |  | no binding | 
GFP-Pib2 (protein, UniProt P53191 1-635) MTALHSVSKTPAIKEEEEDGDERDGRGVPLGPRNHDYRGRKGDEESGADTVTSPITFEKKKIAPRASTHSEQSILSSISLKSMVNQHRQQQLQQESSTGAGTGFVDRKQQIQSPAMVSILRKNSAEENVRSSHSSKLGEGQIDGRKASASKEIGKTLPFTDDQRSNPELDPTNSVVDVSRGKNTKSKTVFNELEDDADDDDEVRQKNLTTQALRKLSSFKMNASSNLRLSKENKAKESSSSSTSSVSSSSTSKVENIVDKLTTTNSSSMSQLRFGNTNVIIDSVNHAAKPPHQQMLRKPSLEFLPQPASSTNLNFNSNKHKSNVRQISNPKKPLYIPAVLRKVSETNITNDDLLNATLSSYYKKASNLEHGFNPSKSQSASVQNANNLRIISSQSSVQSNTSSILESYKNKISSYLFPNSIPNSDRINLIPTISNRNSARVNPPTKDHWIPDSKRNSCRYCHKPFTLWERKHHCRHCGDIFCQDHLRHWLYLDSQANFIMINELNNGGINGGGTLCKICDDCLVEYENLSTTNHNANTNEDNINVEEGEDDDNDNRKKLRNYYKNRQMNALFRPKKGGSSQEHATVDRDTTTPIQVKSNDEEADNENTGGEQEEGNDVLGSVIGSVPANWNWSSF |  |  |  | no binding |  | no binding |  | 
